# Reference: PubChem BioAssay (NCATS)
# Values joined by “and” are separate entries in the source; they are usually repeats but may differ in a detail not shown here. Equal values may be shown once. Inconclusive results, whose numbers are uncertain, are shown with a selection of clear calls. For part of these data: Potencies of inconclusive entries are doubtful fits and often do not repeat. Active and inactive are the calls of the source. Unless noted, the call rests on the fitted dose curve; in most records, active means well fitted curve in the direction sought with a large enough effect; inconclusive means small, poorly fitted or top-dose-only effect, or another doubt; inactive means no such curve, though single readings can be large; an effect the other way counts as inactive or inconclusive.
# How the values were obtained:
# HaCat = assay: Cytotoxic Profiling of Annotated Libraries Using Quantitative High-Throughput Screening (AID 1296008); conditions: Five cell lines viability, CellTiter-Glo ATP luminescence, 48-72 h; max response: stronger effect = lower value; further: nearly all actives have a fitted effect of over 60% in size; further: potency means the concentration at half of the fitted maximal effect
# Method in brief: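 Compounds were pin-transferred onto cells and incubated 48 or 72 hr at 37 degree Celsius, 95% humidity. CellTiter-Glo was added, plates sat 10 min at room temperature, then ATP-coupled luminescence was imaged as the viability read-out.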
# [1] = qHTS of pediatric cancer cell lines to identify multiple opportunities for drug repurposing: Primary screen for BT-37 cells (AID 1347094); further: potency means the concentration at half of the fitted maximal effect;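 on activity change, negative = cytotoxic: plate controls were DMSO for no effect and bortezomib for full effect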
# Method in brief: (§1)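 CRCs from 8- or 11-point titrations (lowest final 0.59 nM NPC, 0.78 nM MIPE). Cell viability: CellTiter-Glo after 48 h incubation, 15 min room-temperature development, luminescence imaging.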
# [2] = qHTS of pediatric cancer cell lines to identify multiple opportunities for drug repurposing: Primary screen for Rh18 cells (AID 1347102); further: nearly all actives have a fitted effect of over 65% in size; further: potency means the concentration at half of the fitted maximal effect; on activity change, negative = cytotoxic: on the % scale 0 is the no-effect control and ±100 the full control effect
# Method in brief: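 Cells (500-1,000/well) in growth media were settled 5 h at 37 degrees C, then given compounds for 48 h. Viability was read as CellTiter-Glo luminescence. Primary runs used MIPE at 11 points (0.78 nM-46 µM) and NPC at 8 points (0.59 nM-46 µM); follow-ups used 11 points.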
# [3] = qHTS of pediatric cancer cell lines to identify multiple opportunities for drug repurposing: Primary screen for MG 63 (6-TG R) cells (AID 1347105); conditions: MG 63 (6-TG R) viability, CellTiter-Glo, 48 h; activity change, negative = cytotoxic: at 46 µM (top of the series); further: nearly all actives have a fitted effect of over 50% in size; further: potency means the concentration at half of the fitted maximal effect; on activity change, negative = cytotoxic: on the % scale 0 is the no-effect control and ±100 the full control effect
# Method in brief: as §1
# [4] = system: Zika virus NS2B-NS3 protease; assay: Primary screen GU AMC qHTS for Zika virus inhibitors (AID 1347154); further: nearly all actives have a fitted effect of over 70% in size; further: potency means the concentration at half of the fitted maximal effect;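 on activity change, negative = inhibition: 0% = no-inhibitor control and -100% = no-enzyme control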
# Method in brief: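 Unlinked Zika NS2B hydrophilic domain/NS3 protease domain noncovalent complex (25 nM final) in 10 mM Tris-HCl pH 8.0, 0.01% Tween 20, with AMC peptide substrate. Fluorescence (ex 340, em 450 nm) change over 15 min, room temperature; percent inhibition fitted to 4-parameter Hill equation.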
# ICS = assay: qHTS profiling for inhibitors of Plasmodium falciparum proliferation (AID 504749); further: nearly all actives have a fitted effect of over 60% in size; further: potency means the concentration at half of the fitted maximal effect;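 on activity, negative = inhibition: 0% = DMSO vehicle and full inhibition = artemisinin control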; conditions: P. falciparum in erythrocytes, SYBR Green DNA, 72 h; series mostly up to 28.7 µM
# Method in brief: (§2)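 P. falciparum-infected erythrocytes (0.3% parasitemia, 2.5% hematocrit final) were exposed to compounds for 72 h at 37 C in 5% CO2, then lysed with SYBR Green buffer overnight at room temperature; parasite DNA fluorescence was normalized to artemisinin and DMSO controls.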
# [5] = P-glycoprotein substrates identified in KB-8-5-11 adenocarcinoma cell line, qHTS therapeutic library screen (AID 1346987); conditions: activity change, negative = cytotoxicity: at 44.5 µM (top of the series); further: nearly all actives have a fitted effect of over 65% in size; further: potency means the concentration at half of the fitted maximal effect; on activity change, negative = cytotoxicity: on the % scale 0 is the no-effect control and ±100 the full control effect
# Method in brief: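 P-gp-mediated resistance screen: KB-8-5-11 cells treated 72 h with compounds in dose-response. CellTiter-Glo viability.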
# [6] = qHTS of pediatric cancer cell lines to identify multiple opportunities for drug repurposing: Primary screen for DAOY cells (AID 1347090); further: nearly all actives have a fitted effect of over 55% in size; further: potency means the concentration at half of the fitted maximal effect;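 on activity change, negative = cytotoxic: plate controls were DMSO for no effect and bortezomib for full effect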
# Method in brief: (§3)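 Eight- or eleven-point concentration series, 48 h treatment at 37 degrees C in growth media; readout CellTiter-Glo luminescence. Potency and efficacy were taken from the concentration-response curves.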
# CAOV3 = assay: Primary qHTS to identify gynecologic anti-cancer compounds using libraries of approved drugs and bioactive compounds (AID 1345084); conditions: Gynecologic cancer cell panel viability, ATPlite luminescence, 48 h; series mostly up to 57.5 µM; further: nearly all actives have a fitted effect of over 55% in size; further: potency means the concentration at half of the fitted maximal effect
# Method in brief: (§4)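 ATP-based viability (ATPlite), 1,000 cells/well, 16 h pre-incubation, 48 h compound at 37 C, 5% CO2, 15 min RT before read.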
# [7] = biological target: Cytochrome P450 3A4 (Homo sapiens) (UniProt P08684); assay: Cytochrome P450 family 3 subfamily A member 4 (CYP3A4) small molecule antagonists: luciferase qHTS assay (AID 1645841; active means well fitted curve in the direction sought with a large enough effect in the repeat runs; inconclusive means weak or mixed curves; inactive means no such curve, though single readings can be large; an effect the other way counts as inactive or inconclusive; further: nearly all actives have a fitted effect of over 45% in size)
# Chain of UniProt P08684 (P08684 whole entry, looked up): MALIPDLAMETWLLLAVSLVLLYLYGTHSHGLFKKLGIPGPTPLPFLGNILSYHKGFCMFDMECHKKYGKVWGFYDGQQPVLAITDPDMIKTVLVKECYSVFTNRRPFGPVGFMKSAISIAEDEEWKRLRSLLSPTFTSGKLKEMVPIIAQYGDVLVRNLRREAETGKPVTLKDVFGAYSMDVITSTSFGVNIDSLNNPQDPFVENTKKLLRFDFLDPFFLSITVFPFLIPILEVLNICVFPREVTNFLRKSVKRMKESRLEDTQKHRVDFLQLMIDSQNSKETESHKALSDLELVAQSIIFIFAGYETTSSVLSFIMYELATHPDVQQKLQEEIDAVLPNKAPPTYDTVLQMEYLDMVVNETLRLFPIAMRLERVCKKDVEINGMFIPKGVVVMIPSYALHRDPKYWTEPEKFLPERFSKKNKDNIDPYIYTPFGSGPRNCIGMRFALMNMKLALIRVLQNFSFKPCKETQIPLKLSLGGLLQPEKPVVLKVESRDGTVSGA
# Method in brief: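 P450-Glo CYP3A4 enzyme with proluciferin substrate was preincubated with DMSO-dissolved compounds for 10 min at room temperature. NADPH regeneration solution started a 1 h reaction. Detection reagent stopped it, and luminescence was read after 20 min.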
# PA-1 = assay: Primary qHTS to identify gynecologic anti-cancer compounds using libraries of approved drugs and bioactive compounds (AID 1345084); conditions: Gynecologic cancer cell panel viability, ATPlite luminescence, 48 h; series mostly up to 57.5 µM; further: nearly all actives have a fitted effect of over 55% in size; further: potency means the concentration at half of the fitted maximal effect
# Method in brief: as §4
# Tov-21-G = assay: as above; conditions: Gynecologic cancer cell panel viability, ATPlite luminescence, 48 h; series mostly up to 57.5 µM
# Method in brief: as §4
# [8] = NFAT Signaling Pathway (AID 444; active means well fitted curve in either direction with a large enough effect, not every such curve was filed as active; inconclusive means small, poorly fitted or top-dose-only effect, or another doubt;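 further: carbachol stimulus at about its EC50 of 1 µM final; on the % scale 0 is the no-effect control and ±100 the full control effect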); conditions: Jurkat NFAT-bla M1, carbachol, beta-lactamase ratio, 5 h
# Method in brief: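 Jurkat cells carrying an NFAT-driven β-lactamase reporter and co-transfected muscarinic M1 receptor were treated with compound plus carbachol (1 uM final, an EC50 level) for 5 h at 37 °C. CCF4 loading followed for 1 h at RT; 460/530 nm ratio gave %activity.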
# CP260 = assay: qHTS profiling for inhibitors of Plasmodium falciparum proliferation (AID 504749); further: nearly all actives have a fitted effect of over 60% in size; further: potency means the concentration at half of the fitted maximal effect;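 on activity, negative = inhibition: 0% = DMSO vehicle and full inhibition = artemisinin control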; conditions: P. falciparum in erythrocytes, SYBR Green DNA, 72 h; series mostly up to 28.7 µM
# Method in brief: as §2
# [9] = qHTS of pediatric cancer cell lines to identify multiple opportunities for drug repurposing: Primary screen for SJ-GBM2 cells (AID 1347091); further: potency means the concentration at half of the fitted maximal effect;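 on activity change, negative = cytotoxic: plate controls were DMSO neutral control for no effect and bortezomib for full effect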
# Method in brief: as §3
# [10] = qHTS of pediatric cancer cell lines to identify multiple opportunities for drug repurposing: Primary screen for NB1643 cells (AID 1347099); conditions: NB1643 neuroblastoma viability, CellTiter-Glo luminescence, 48 h; activity change, negative = cytotoxic: at 46 µM (top of the series); further: nearly all actives have a fitted effect of over 50% in size; further: potency means the concentration at half of the fitted maximal effect;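 on activity change, negative = cytotoxic: plate controls were DMSO neutral control for no effect and bortezomib positive control for full effect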
# Method in brief: as §1
# [11] = qHTS of pediatric cancer cell lines to identify multiple opportunities for drug repurposing: Primary screen for Rh41 cells (AID 1347108); further: nearly all actives have a fitted effect of over 70% in size; further: potency means the concentration at half of the fitted maximal effect;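 on activity change, negative = cytotoxic: luminescence drop marks cytotoxic hits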
# Method in brief: as §1
# W2 = assay: qHTS profiling for inhibitors of Plasmodium falciparum proliferation (AID 504749); further: nearly all actives have a fitted effect of over 60% in size; further: potency means the concentration at half of the fitted maximal effect;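 on activity, negative = inhibition: 0% = DMSO vehicle and full inhibition = artemisinin control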; conditions: P. falciparum in erythrocytes, SYBR Green DNA, 72 h; activity, negative = inhibition: at 28.7 µM (top of the series)
# Method in brief: as §2
# OV90 = assay: Primary qHTS to identify gynecologic anti-cancer compounds using libraries of approved drugs and bioactive compounds (AID 1345084); conditions: Gynecologic cancer cell panel viability, ATPlite luminescence, 48 h; series mostly up to 57.5 µM; further: nearly all actives have a fitted effect of over 55% in size; further: potency means the concentration at half of the fitted maximal effect
# Method in brief: as §4
# Tags describe the fitted curve by direction and shape.
smiles,measurement,setting,value
COc1cc2c(c(OC)c1O)C(c1ccc(O)cc1)C1C(=O)OC3C(COC(=O)C1=C2)OC(CO)(OC1OC(COC(=O)/C=C/c2ccc(OC4OC(C)C(O)C(O)C4O)cc2)C(O)C(O)C1O)C3O (stereo unspecified),outcome,HaCat,inactive
Oc1ccccc1-c1cc(-c2ccccc2F)[nH]n1,outcome,HaCat,inactive
CC1(C)C(=O)CCC2(C)C1C(O)C=C1COC(=O)C12O (stereo unspecified),outcome,HaCat,inactive
Cc1c(-c2ccccc2)oc2c(C(=O)OCCN3CCCCC3)cccc2c1=O,Potency,[1],inactive
same,Potency,[2],inactive
same,"activity change, negative = cytotoxic",[3],inconclusive: -32.3% [cytotoxic]
same,Potency,[4],inactive
same,Potency,ICS,inactive
COc1cc2[nH]c(=O)[nH]c(=O)c2cc1OC,Potency,[5],inactive
same,Potency,[6],inactive
same,Potency,[4],"inconclusive: 22.8 µM [inhibitor, partial curve]"
same,Potency,CAOV3,inactive
C=C1c2cccc(O)c2C(O)=C2C(=O)[C@]3(O)C(O)=C(C(N)=O)C(=O)[C@@H](N(C)C)[C@@H]3[C@@H](O)[C@H]12,Potency,[4],active: 3.98 µM and active: 2.99 µM
same,Potency,[7],inactive
same,Potency,PA-1,inactive
CCC(C(=O)NC(=O)NC(C)=O)c1ccccc1 (stereo unspecified),Potency,Tov-21-G,inactive
CCOc1ccc(S(=O)(=O)n2c(C)nc3ccccc32)cc1,max response,HaCat,inactive: -31.1%
CN1CCN(CC(=O)N2c3ccccc3C(=O)Nc3cccnc32)CC1,"activity change, negative = inhibition",[8]; at 17.2 µM (top of the series),inconclusive: -41.9% [inhibitor] and active: -94.8%
same,"activity change, negative = inhibition",[8]; at 38 µM (top of the series),inconclusive: -70.9% [inhibitor]
same,Potency,CP260,inactive
same,Potency,ICS,inactive
CNC(=O)CN1CCC(Oc2cc3c(Nc4cccc(Cl)c4F)ncnc3cc2OC)CC1,Potency,[5],inactive
same,Potency,[9],active: 0.001 µM
same,Potency,[1],active: 0.001 µM
same,Potency,[10],"inconclusive: 5.26 µM [cytotoxic, partial curve, poor fit]"
same,Potency,[2],"inconclusive: 18.7 µM [cytotoxic, partial curve]"
same,Potency,[3],"inconclusive: 0.0372 µM [cytotoxic, full curve]"
same,Potency,[11],active: 0.0469 µM
same,Potency,Tov-21-G,"inconclusive: 4.47 µM [cytotoxic, partial curve, poor fit]"
COc1ccc(-c2cc(=O)c3c(O)cc(O[C@@H]4O[C@H](CO[C@@H]5O[C@@H](C)[C@H](O)[C@@H](O)[C@H]5O)[C@@H](O)[C@H](O)[C@H]4O)cc3o2)cc1O,Potency,[9],inactive
same,Potency,[11],inactive
same,Potency,[4],inactive
same,Potency,CAOV3,inactive
Nc1nc(=O)n([C@@H]2O[C@H](CO)[C@@H](O)[C@@H]2F)cc1I,Potency,[1],"inconclusive: 17.4 µM [cytotoxic, partial curve, poor fit]"
O=C(O)c1cc(C(F)(F)F)ccc1N1CC[C@H](OCc2ccccn2)C1,outcome,HaCat,inactive
O=C1C(=O)c2ccccc2C(O)=C1C1CCC(c2ccc(Cl)cc2)CC1 (stereo unspecified),"activity change, negative = inhibition",[8]; at 17.2 µM (top of the series),inactive: -25%
same,Potency,[5],"inconclusive: 9.88 µM [inhibitor, single point]"
same,Potency,[10],inactive
same,Potency,[7],inactive
same,Potency,CP260,active: 0.0008 µM
same,Potency,W2,inconclusive: 0.0032 µM [activator]
COC1CC(O[C@H]2CC[C@@]3(C)C(=CC[C@]4(O)C3[C@H](OC(C)=O)[C@@H](OC(=O)c3ccccc3)[C@]3(C)[C@@H](C(C)=O)CC[C@@]34O)C2)OC(C)C1OC1CC(OC)C(OC2CC(OC)C(OC3OC(C)C(OC4OC(CO)C(O)C(O)C4O)C(OC)C3O)C(C)O2)C(C)O1 (stereo partly specified),Potency,HaCat,"inconclusive: 1.1 µM [inhibitor, partial curve, poor fit]"
C=C[C@H]1[C@H](O[C@@H]2O[C@H](CO)[C@@H](O)[C@H](O)[C@H]2O)OC=C(C(=O)OC)[C@H]1C[C@@H]1N[C@H](C(=O)O)Cc2c1[nH]c1ccccc21,Potency,[5],inactive
same,Potency,PA-1,inactive
CCC/C=C/C=C/C1CC(O)C(O)C(=O)C1CO (stereo unspecified),outcome,HaCat,inactive
CC(/C=C/C1(O)C(C)CC(O)CC1(C)C)OC1OC(CO)C(O)C(O)C1O (stereo unspecified),max response,HaCat,inactive: -9.66%
C=C(C)C1CCC2(C(=O)O[C@@H]3O[C@H](CO[C@@H]4O[C@H](CO)[C@@H](O)[C@H](O)[C@H]4O)[C@@H](O)[C@H](O[C@@H]4O[C@@H](C)[C@H](O)[C@@H](O)[C@H]4O)[C@H]3O)CCC3(C(=O)O)C(CCC4C5(C)CCC(O)C(C)(C)C5CCC43C)C12 (stereo partly specified),Potency,HaCat,"inconclusive: 6.18 µM [inhibitor, single point]"
COC(=O)Nc1cc(Nc2cc(NC3CC3)c3ncc(C#N)n3n2)c(Cl)c(N2CCN(C)CC2)c1,Potency,HaCat,active: 0.741 µM
COc1cc(/C=C/C(=O)OC2CC(OC(C)=O)C(OC(C)=O)C3C2CCC2C(=O)OC(c4ccoc4)CC23C)ccc1O[C@@H]1O[C@H](CO)[C@@H](O)[C@H](O)[C@H]1O (stereo partly specified),Potency,HaCat,active: 6.11 µM
Cc1ccc(/C=N/n2c(-c3ccccc3)csc2=S)cc1,Potency,[5],"inconclusive: 18.4 µM [inhibitor, single point]"
same,Potency,[9],inactive
same,Potency,[2],inactive
CC1(CO)CC2C(O)C3=C(CC(C)(O)C2C1)C(=O)OC3 (stereo unspecified),Potency,HaCat,"inconclusive: 20.6 µM [inhibitor, partial curve, poor fit]"
Nc1nc(=O)n([C@H]2C[C@H](O)[C@@H](CO)O2)cc1F,Potency,[5],active: 4.18 µM
same,Potency,[1],"inconclusive: 0.153 µM [cytotoxic, full curve]"
same,Potency,[3],inactive
C=C1CC23CC1CCC2C12OC(=O)C(C)(CCC1O)C2C3C(=O)O (stereo unspecified),Potency,HaCat,"inconclusive: 14.3 µM [inhibitor, single point]"
CO[C@@H]1[C@H](N(C)C(=O)c2ccccc2)C[C@H]2O[C@]1(C)n1c3ccccc3c3c4c(c5c6ccccc6n2c5c31)C(=O)NC4,Potency,[6],"inconclusive: 1.48 µM [cytotoxic, full curve]"
same,Potency,[1],"inconclusive: 3.43 µM [cytotoxic, full curve]"
same,Potency,[10],"inconclusive: 0.235 µM [cytotoxic, full curve]"
same,Potency,[2],active: 1.32 µM
O=S(=O)(O)c1ccc(O)cc1,Potency,OV90,"inconclusive: 31.6 µM [rising, single point]"
Cc1c(N(C)C)c(=O)n(-c2ccccc2)n1C,Potency,[5],inactive
same,Potency,[6],inactive
same,Potency,Tov-21-G,inactive
same,Potency,CP260,"inconclusive: 17.8 µM [inhibitor, single point]"
